The list shows a part of the results.
Molecular target: no compound (DMSO)
Experiment: log2 fold change of degron read counts, EGFP-low vs EGFP+ sorted cells; higher = lower degron-EGFP level without compound (poor expression or instability)
Settings: compound: DMSO control; 18 h
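Note: jurkat cells carrying a lentiviral library of mutant zinc finger degrons fused to EGFP plus mCherry, mCherry+ cells FACS sorted, degron abundance counted by next-generation sequencing.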

Row | Sequence | log2 fold change of degron read counts
1 | FACEQCGASFTQKGNLLRHIKL | -2.63
2 | FCCEQCGAAFTQKGNLLRHIKL | -1.22
3 | FCCNQCGHKFTQKGNLLRHIKL | 0.111
4 | FRCEICGRWFTQKGNLLRHIKL | -0.164
5 | FYCNQCGRPFTQKGNLLRHIKL | 0.465
6 | FVCNQCGRNFTQKGNLLRHIKL | -0.37
7 | FYCPQCGASFTQKGNLLRHIKL | -0.232
8 | FVCNICGALFTQKGNLLRHIKL | 0.258
9 | FACEICGRWFTQKGNLLRHIKL | 0.0696
10 | FFCNICGAAFTQKGNLLRHIKL | 0.104
11 | FICEQCGATFTQKGNLLRHIKL | -3.24
12 | FSCPICGHWFTQKGNLLRHIKL | 0.283
13 | FNCEQCGAHFTQKGNLLRHIKL | -2.72
14 | FHCEICGAHFTQKGNLLRHIKL | -1.46
15 | FDCNICGANFTQKGNLLRHIKL | -0.475
16 | FCCNVCGAHFTQKGNLLRHIKL | -0.0947

Row | Sequence | log2 fold change of degron read counts
17 | LCCNQCGFGCTQKGNLLRHIKL | 0.937
18 | FYCNICGAEFTQKGNLLRHIKL | -0.936
19 | LRCEICGFYCTQKGNLLRHIKL | 1.39
20 | FQCPVCGAPFTQKGNLLRHIKL | 0.533
21 | LHCNQCGFWCTQKGNLLRHIKL | 1.94
22 | FKCNQCGHSFTQKGNLLRHIKL | -0.45
23 | FRCSVCGHTFTQKGNLLRHIKL | -0.0669
24 | LECNQCGFYCTQKGNLLRHIKL | 0.772
25 | LWCNQCGFLCTQKGNLLRHIKL | 2.68
26 | FVCNQCGAWFTQKGNLLRHIKL | 0.549
27 | FSCNICGAEFTQKGNLLRHIKL | -1.83
28 | FMCPICGRQFTQKGNLLRHIKL | 0.239
29 | LFCPICGFVCTQKGNLLRHIKL | 1.09
30 | FHCPICGAFFTQKGNLLRHIKL | 0.327
31 | FLCEICGRQFTQKGNLLRHIKL | -1.08
32 | FRCPICGHIFTQKGNLLRHIKL | -0.141

— the supplement of paper PMC12645437, “Orthogonal IMiD-Degron Pairs Induce Selective Protein Degradation in Cells” (ACS Chemical Biology, 2025)
